Measurements: the supplement of paper PMC4967469
Lines with a small IC50 respond at low doses; fits outside the tested doses are given as limits. AUC is the area under the same curve over the 256-fold range up to the top dose, as a fraction: 1 means no effect, lower means more sensitive.

Compound: N#CC[C@H](C1CCCC1)n1cc(-c2ncnc3[nH]ccc23)cn1 [Ruxolitinib]
Test: Viability of human cancer cell lines after 72 h of drug (GDSC screen)
Protocol: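 Human cancer cell lines in 384-well plates, medium with 10% serum, drug for 72 h over a 256-fold dose range (nine 2-fold or five 4-fold steps up to the top dose). Adherent lines were fixed and stained with the nucleic acid dye Syto60, suspension lines read with resazurin; signal relative to control wells, capped at 0 and 100%. One two-parameter sigmoid per drug and line, fitted in a mixed model over all curves with the slope shared within a line.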

Row | Cell Line | AUC | IC50
1 | NCI-H1944 (lung adenocarcinoma, adherent, top dose 5.24 µM) | 0.935 | > 5.24 µM
2 | HMV-II (melanoma, adherent, top dose 5.24 µM) | 0.981 | > 5.24 µM
3 | NB14 (neuroblastoma, adherent, top dose 5.24 µM) | 0.988 | > 5.24 µM
4 | NCI-H526 (small cell lung carcinoma, suspension, top dose 5.24 µM) | 0.987 | > 5.24 µM
5 | GT3TKB (stomach, adherent, top dose 5.24 µM) | 0.988 | > 5.24 µM
6 | NCI-H1048 (small cell lung carcinoma, adherent, top dose 5.24 µM) | 0.99 | > 5.24 µM
7 | SBC-3 (small cell lung carcinoma, adherent, top dose 5.24 µM) | 0.967 | > 5.24 µM
8 | NUGC-3 (stomach, adherent, top dose 5.24 µM) | 0.984 | > 5.24 µM
9 | A498 (kidney, adherent, top dose 5.24 µM) | 0.971 | > 5.24 µM
10 | COLO-668 (small cell lung carcinoma, adherent, top dose 5.24 µM) | 0.979 | > 5.24 µM
11 | TMK-1 (stomach, adherent, top dose 5.24 µM) | 0.985 | > 5.24 µM
12 | HSC-4 (head and neck, adherent, top dose 5.24 µM) | 0.976 | > 5.24 µM
13 | SKG-IIIa (cervix, adherent, top dose 5.24 µM) | 0.978 | > 5.24 µM
14 | Capan-2 (pancreas, adherent, top dose 5.24 µM) | 0.984 | > 5.24 µM
15 | IST-MES1 (mesothelioma, adherent, top dose 5.24 µM) | 0.987 | > 5.24 µM
16 | COR-L279 (small cell lung carcinoma, suspension, top dose 5.24 µM) | 0.981 | > 5.24 µM
17 | MDA-MB-157 (breast, adherent, top dose 5.24 µM) | 0.987 | > 5.24 µM
18 | KU812 (chronic myeloid leukaemia, suspension, top dose 5.24 µM) | 0.988 | > 5.24 µM
19 | CAL-29 (bladder, adherent, top dose 5.24 µM) | 0.984 | > 5.24 µM
20 | SW756 (cervix, adherent, top dose 5.24 µM) | 0.985 | > 5.24 µM

Row | Cell Line | AUC | IC50
21 | JHU-011 (head and neck, adherent, top dose 5.24 µM) | 0.981 | > 5.24 µM
22 | DB (B-cell lymphoma, suspension, top dose 5.24 µM) | 0.983 | > 5.24 µM
23 | LCLC-97TM1 (large cell lung carcinoma, adherent, top dose 5.24 µM) | 0.976 | > 5.24 µM
24 | NCI-H2087 (lung adenocarcinoma, semi-adherent, top dose 5.24 µM) | 0.887 | > 5.24 µM
25 | NCI-H1581 (large cell lung carcinoma, semi-adherent, top dose 5.24 µM) | 0.986 | > 5.24 µM
26 | TE-4 (oesophagus, adherent, top dose 5.24 µM) | 0.981 | > 5.24 µM
27 | NCI-H2405 (lung adenocarcinoma, adherent, top dose 5.24 µM) | 0.976 | > 5.24 µM
28 | SiHa (cervix, adherent, top dose 5.24 µM) | 0.986 | > 5.24 µM
29 | MDA-MB-436 (breast, adherent, top dose 5.24 µM) | 0.984 | > 5.24 µM
30 | GMS-10 (glioma, adherent, top dose 5.24 µM) | 0.979 | > 5.24 µM
31 | NB5 (neuroblastoma, adherent, top dose 5.24 µM) | 0.986 | > 5.24 µM
32 | no-11 (glioma, adherent, top dose 5.24 µM) | 0.961 | > 5.24 µM
33 | GOTO (neuroblastoma, adherent, top dose 5.24 µM) | 0.98 | > 5.24 µM
34 | HT-1197 (bladder, adherent, top dose 5.24 µM) | 0.985 | > 5.24 µM
35 | SW982 (soft tissue, adherent, top dose 5.24 µM) | 0.983 | > 5.24 µM
36 | WM278 (melanoma, adherent, top dose 5.24 µM) | 0.982 | > 5.24 µM
37 | NCI-H1563 (lung adenocarcinoma, adherent, top dose 5.24 µM) | 0.956 | > 5.24 µM
38 | PANC-03-27 (pancreas, adherent, top dose 5.24 µM) | 0.989 | > 5.24 µM
39 | YMB-1-E (breast, adherent, top dose 5.24 µM) | 0.978 | > 5.24 µM
40 | ECC10 (stomach, suspension, top dose 5.24 µM) | 0.979 | > 5.24 µM

Row | Cell Line | AUC | IC50
41 | MMAC-SF (melanoma, adherent, top dose 5.24 µM) | 0.987 | > 5.24 µM
42 | 23132-87 (stomach, adherent, top dose 5.24 µM) | 0.986 | > 5.24 µM
43 | HOS (osteosarcoma, adherent, top dose 5.24 µM) | 0.992 | > 5.24 µM
44 | HCC1419 (breast, adherent, top dose 5.24 µM) | 0.978 | > 5.24 µM
45 | OCUM-1 (stomach, adherent, top dose 5.24 µM) | 0.985 | > 5.24 µM
46 | T47D (breast, adherent, top dose 5.24 µM) | 0.97 | > 5.24 µM
47 | MY-M12 (leukaemia, suspension, top dose 5.24 µM) | 0.964 | > 5.24 µM
48 | ONS-76 (medulloblastoma, adherent, top dose 5.24 µM) | 0.981 | > 5.24 µM
49 | PC-3 [JPC-3] (lung adenocarcinoma, adherent, top dose 5.24 µM) | 0.951 | > 5.24 µM
50 | U-698-M (B-cell leukaemia, suspension, top dose 5.24 µM) | 0.987 | > 5.24 µM
51 | IMR-5 (neuroblastoma, adherent, top dose 5.24 µM) | 0.987 | > 5.24 µM
52 | KM12 (large intestine, adherent, top dose 5.24 µM) | 0.915 | > 5.24 µM
53 | SCC90 (head and neck, adherent, top dose 5.24 µM) | 0.925 | > 5.24 µM
54 | L-363 (myeloma, suspension, top dose 5.24 µM) | 0.988 | > 5.24 µM
55 | LB1047-RCC (kidney, adherent, top dose 5.24 µM) | 0.983 | > 5.24 µM
56 | LU-135 (small cell lung carcinoma, suspension, top dose 5.24 µM) | 0.979 | > 5.24 µM
57 | RH-41 (rhabdomyosarcoma, adherent, top dose 5.24 µM) | 0.989 | > 5.24 µM
58 | PANC-08-13 (pancreas, adherent, top dose 5.24 µM) | 0.982 | > 5.24 µM
59 | GCIY (stomach, adherent, top dose 5.24 µM) | 0.984 | > 5.24 µM
